Counter-ions that a name gives are not always drawn. ± gives the standard deviation of the averaged measurements. In all, about 1,900 compounds were measured (“normalised cell viability (NPI; 0 = phenylarsine oxide control, 1 = DMSO control)”: median about 1, lowest 2% from about 0.039 on). This is one part of the list.
System: NCI-H1944
Experiment: normalised cell viability (NPI; 0 = phenylarsine oxide control, 1 = DMSO control) (fraction of DMSO control); NCI-H1944 is a non-small cell lung cancer line; higher = more viable cells (less compound toxicity)
Conditions: 6 days
[1] = glucocorticoid arm: hydrocortisone 2.75 uM co-treatment, compound 1 µM
[2] = glucocorticoid arm: hydrocortisone 2.75 uM co-treatment, compound 5 µM
[3] = glucocorticoid arm: hydrocortisone 2.75 uM pre-treated 2 days and continued, compound 1 µM
[4] = glucocorticoid arm: hydrocortisone 2.75 uM pre-treated 2 days and continued, compound 5 µM
[5] = glucocorticoid arm: vehicle, compound 1 µM
[6] = glucocorticoid arm: vehicle, compound 5 µM
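Further: CTB read-out in 384-well plates, mean of triplicate wells, normalised per plate against 1 µM phenylarsine oxide and 0.1% DMSO, compounds added 24 h after seeding.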

| SMILES | normalised cell viability [1] | normalised cell viability [2] | normalised cell viability [3] | normalised cell viability [4] | normalised cell viability [5] | normalised cell viability [6] |
| --- | --- | --- | --- | --- | --- | --- |
| N[C@H](C(=O)O)c1cc(O)cc(O)c1 [(S)-3,5-Dihydroxyphenylglycine] | 0.995 ± 0.013 | 0.974 ± 0.011 | 0.988 ± 0.011 | 0.9747 ± 0.0078 | 0.9913 ± 0.0025 | 0.9867 ± 0.0021 |
| CC(=O)O[C@]1(C(C)=O)CC[C@H]2[C@@H]3C[C@H](C)C4=CC(=O)CC[C@]4(C)[C@H]3CC[C@@]21C [Medroxyprogesterone acetate] | 1.04 | 1.02 ± 0.021 | 1.04 ± 0.011 | 0.987 ± 0.013 | 0.893 ± 0.041 | 0.838 ± 0.01 |
| COc1cc2c(Oc3ccc4[nH]c(C)cc4c3F)ncnc2cc1OCCCN1CCCC1 [Cediranib (AZD2171)] | 0.888 ± 0.016 | 0.792 ± 0.029 | 0.944 ± 0.01 | 0.889 ± 0.018 | 0.9643 ± 0.0086 | 0.912 ± 0.032 |
| CC(NC(=O)C(O)c1cc(F)cc(F)c1)C(=O)NC1C(=O)N(C)c2ccccc2-c2ccccc21 (stereo not drawn) | 0.973 ± 0.013 | 0.995 ± 0.017 | 0.977 ± 0.015 | 1.007 ± 0.0058 | 0.9893 ± 0.0038 | 0.9993 ± 0.0011 |
| Nc1nc2c(nc(Br)n2C2OC3COP(=O)(O)O[C@@H]3C2O)c(=O)[nH]1 (stereo partly drawn) [8-Bromo-cGMP sodium] | 1.023 ± 0.0058 | 1.02 | 1.02 ± 0.01 | 1 ± 0.028 | 1.01 ± 0.011 | 1.01 ± 0.015 |
| O=[N+]([O-])c1cccc2cn[nH]c12 [7-Nitroindazole] | 1.01 ± 0.015 | 0.999 ± 0.045 | 1.01 ± 0.021 | 0.844 ± 0.25 | 1.013 ± 0.0058 | 1.02 ± 0.01 |
| COc1ccccc1OCC(O)CN1CCN(CC(=O)Nc2c(C)cccc2C)CC1 (stereo not drawn) [Ranolazine dihydrochloride] | 0.9667 ± 0.0051 | 0.9937 ± 0.0065 | 0.993 ± 0.019 | 0.989 ± 0.017 | 0.9663 ± 0.0057 | 0.9677 ± 0.0015 |
| COc1cc([C@@H]2c3cc4c(cc3[C@@H](O[C@@H]3O[C@@H]5CO[C@@H](C)O[C@H]5[C@H](O)[C@H]3O)[C@H]3COC(=O)[C@H]23)OCO4)cc(OC)c1O [Etoposide] |  |  | 1.01 |  |  |  |
| CCCNCC(O)COc1ccccc1C(=O)CCc1ccccc1 (stereo not drawn) [Propafenone hydrochloride] | 1.013 ± 0.0058 | 0.947 ± 0.011 | 1.02 ± 0.01 | 1 ± 0.017 | 1.01 ± 0.011 | 1.02 ± 0.017 |
| O=C1c2ccc(Nc3ccc(F)cc3F)cc2CCc2ccc(OC[C@H](O)CO)cc21 [Skepinone-L] | 0.865 ± 0.015 | 0.919 ± 0.016 | 0.864 ± 0.03 | 0.87 ± 0.013 | 1.01 | 1.04 ± 0.017 |
| CCCCCCCCCCCCCCCCCC(=O)OC(CC(=O)O)C[N+](C)(C)C (racemic) [DL-Stearoylcarnitine chloride] | 0.9967 ± 0.0042 | 0.906 ± 0.03 | 1.01 ± 0.019 | 0.993 ± 0.0017 | 1.013 ± 0.0058 | 0.99967 ± 0.00058 |
| CC(=O)Nc1nc(C)c(-c2ccc(Cl)c(S(=O)(=O)NCCO)c2)s1 | 0.998 ± 0.013 | 1 ± 0.044 | 0.996 ± 0.013 | 0.975 ± 0.04 | 0.993 ± 0.006 | 1.004 ± 0.0098 |
| COc1ccc(C2CNC(=O)C2)cc1OC1CCCC1 (stereo not drawn) [Rolipram] | 0.975 ± 0.0035 | 0.98 ± 0.019 | 1.01 ± 0.018 | 0.985 ± 0.0078 | 1.001 ± 0.0085 | 0.988 ± 0.01 |
